# Among all 370,000 compounds or so, about 150 (0.041%) were called active. The shares of active, inactive and inconclusive entries below differ from those in the screen. The call rests on the fitted dose curve; in most records, active means well fitted inhibition curve with a large enough effect; inconclusive means small, poorly fitted or top-dose-only effect; inactive means flat fitted curve, though single readings scatter. Potencies of inconclusive entries are left out as doubtful fits.
# Target: Beta-lactamase (Escherichia coli (strain K12)) (UniProt P00811)
# Assay: qHTS Inhibitors of AmpC Beta-Lactamase (assay with detergent); further: nearly all actives have a fitted effect of over 25% in size
# Settings: AmpC hydrolysis of nitrocefin, absorbance 480 nm, 0.01% Triton; series mostly up to 114 µM
# Summary of the method: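 20 mM phosphate pH 7.0 + 0.01% (detergent screen) or 0.0001% Triton X-100; 5.3 nM AmpC reagent; cpd preinc 15 min RT; nitrocefin (800 uM stock) to start; A480 q20 s × 4 min; Activity was normalised to no-enzyme and no-compound control wells.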
# Potency means the concentration at half of the fitted maximal effect; tags describe the fitted curve by direction and shape.
# Sequence of UniProt P00811 (P00811 whole entry, looked up): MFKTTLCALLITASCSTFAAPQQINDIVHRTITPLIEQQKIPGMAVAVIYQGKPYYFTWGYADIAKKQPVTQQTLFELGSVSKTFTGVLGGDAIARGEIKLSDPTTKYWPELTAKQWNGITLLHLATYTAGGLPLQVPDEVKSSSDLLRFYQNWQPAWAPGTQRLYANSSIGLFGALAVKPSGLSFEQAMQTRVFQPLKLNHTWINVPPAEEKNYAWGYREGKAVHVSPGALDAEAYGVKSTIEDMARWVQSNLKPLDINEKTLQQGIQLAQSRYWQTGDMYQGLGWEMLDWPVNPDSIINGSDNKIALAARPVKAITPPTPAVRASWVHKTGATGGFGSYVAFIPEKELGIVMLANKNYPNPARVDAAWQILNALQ
row,SMILES,Potency
1,Cc1ccc(N2CCN(c3ccc(NCc4nc5ccccc5n4C)cc3)CC2)cc1,"inconclusive [inhibitor, partial curve]"
2,CCCC[N+](CC#CCO)(CC#Cc1ccccc1)CCCC,inactive
3,CN(c1ccccc1)S(=O)(=O)c1nnc(NC(=O)COc2ccccc2F)s1,"inconclusive [inhibitor, full curve, poor fit]"
4,Cc1nn(CC(=O)Nc2c(F)cc(F)cc2Br)c(=O)c2cccn12,inactive
5,Cc1ccc2c(c1)CC1(CN2C)C(=O)NC(=O)N(CCC2=CCCCC2)C1=O (stereo not drawn),"inconclusive [inhibitor, full curve, poor fit]"
6,O=C(CSCc1ccccc1)NNC(=S)Nc1cccc(Cl)c1Cl,"inconclusive [inhibitor, full curve, poor fit]"
7,CCc1ccc(NC(=O)CS(=O)CC(=O)Nc2ccc(-n3cnnn3)c(C)c2)cc1 (stereo not drawn),"inconclusive [inhibitor, full curve]"
8,COc1ccccc1NC(=O)C(C)OC(=O)/C=C/c1ccc2ccccc2n1 (stereo not drawn),"inconclusive [inhibitor, partial curve, poor fit]"
9,Nc1c(C(=O)NCc2ccccc2)nnn1Cc1cccc(Cl)c1,"inconclusive [inhibitor, full curve, poor fit]"
10,Cc1ccc(C)c(-c2cc(C(=O)NN3CCOCC3)c3ccccc3n2)c1,"inconclusive [inhibitor, single point]"
11,Cc1nnc(SCc2cnc(-c3ccc(C(C)C)cc3)s2)n1C,inactive
12,CC1CCC(NC(=O)Cn2c(=O)[nH]c3ccsc3c2=O)CC1 (stereo not drawn),"inconclusive [inhibitor, full curve, poor fit]"
13,Cc1cc(NC(=O)CSc2nnc(-c3ccco3)n2Cc2ccccc2)no1,"inconclusive [inhibitor, single point]"
14,O=P(COCCO)(c1ccccc1)c1ccccc1,"inconclusive [inhibitor, partial curve, poor fit]"
15,O=C(/C=C\c1ccc2c(c1)OCO2)CC1(O)C(=O)Nc2ccccc21 (stereo not drawn),inactive
16,COc1ccc(C(C)=O)c(Oc2cc(NN3CCCCC3)c([N+](=O)[O-])cc2[N+](=O)[O-])c1,"inconclusive [inhibitor, partial curve, poor fit]"
17,O=C(NC(=S)Nc1nc(-c2ccccc2)cs1)c1cncc(Br)c1,"inconclusive [inhibitor, full curve, poor fit]"
18,O=C1CC(C(=O)Nc2ccc(O)c(C(=O)O)c2)C(c2ccccc2)O1 (stereo not drawn),"inconclusive [inhibitor, single point]"
19,COc1ccccc1Nc1cc(C(=O)NCCCN2CCOCC2)c2ccccc2n1,inactive
20,O=C(O)c1cc(-c2ccccn2)n[nH]1,"inconclusive [inhibitor, full curve, poor fit]"
21,O=C(c1cc2ccccc2oc1=O)N1CCN(c2ccc(Cl)cc2)CC1,inactive
22,COCCn1c(SCC(=O)OCc2ccccc2)nc2c1c(=O)[nH]c(=O)n2C,"inconclusive [inhibitor, full curve]"

row,SMILES,Potency
1,CCOC(=O)c1cnn2c(C)cc(-c3ccc(F)cc3)nc12,"inconclusive [inhibitor, partial curve, poor fit]"
2,O=C(CSc1nnnn1-c1ccccc1)Nc1ncc2c(n1)CC(c1ccccc1)CC2=O (stereo not drawn),"inconclusive [inhibitor, single point]"
3,Cc1cc(C)c(NC(=O)C2=CCN(S(=O)(=O)c3ccc(F)cc3)CC2)c(C)c1,"inconclusive [inhibitor, partial curve]"
4,CCOC(=O)C1CCCN(C(=O)COc2ccc(C(=O)c3ccccc3)cc2)C1 (stereo not drawn),"inconclusive [inhibitor, partial curve, poor fit]"
5,COc1ccc(CN2CCN(CCSc3ccc(C)cc3)CC2)c(OC)c1OC,"inconclusive [inhibitor, partial curve, poor fit]"
6,COc1ccc(OCC(=O)NCc2ccc3c(c2)CCN3C(=O)c2ccccc2)cc1,inactive
7,O=C(CCC(=O)Nc1ccccc1)NNC(=O)COc1ccccc1,"inconclusive [inhibitor, single point]"
8,CCOc1cc(Br)ccc1S(=O)(=O)NCc1ccccc1,"inconclusive [inhibitor, partial curve]"
9,CCOC(=O)N1CCN(C(=O)CN(c2cccc(C)c2)S(=O)(=O)c2ccccc2)CC1,"inconclusive [inhibitor, full curve]"
10,COc1ccc(N2C3=C(C(=O)CC(C)(C)C3)C(c3cnn(C)c3)C3=C2CC(C)(C)CC3=O)cc1,inactive
11,COc1ccc(-c2nn(-c3ccccc3)cc2N)cc1,inactive
12,Cc1cc(C(F)(F)F)n2nc(-c3ccc(Br)cc3)cc2n1,inactive
13,COc1nc(Nc2ccc([N+](=O)[O-])cc2)nc(NC(C)C)n1,"inconclusive [inhibitor, partial curve]"
14,C=CCn1c(SCc2n[nH]c(=S)n2-c2ccccc2)nnc1-c1ccccc1,inactive
15,O=C(CC(c1ccc(F)cc1)c1ccco1)N1CCOCC1 (stereo not drawn),"inconclusive [inhibitor, partial curve, poor fit]"
16,CCCC#CCN1CCN(C23CC4CC(CC(C4)C2)C3)CC1,inactive
17,CC1CC(C)CN(CCCNC(=O)c2ccc3c(c2)ncn3C2CCCC2)C1 (stereo not drawn),inactive
18,S=C(Nc1ccc(Cl)c(Cl)c1)N1CCCC1,"inconclusive [inhibitor, partial curve, poor fit]"
19,CN[C@H]1CCc2cc(OC)c(OC)c(OC)c2-c2ccc(N(C)CC(OC)OC)c(=O)cc21,inactive
20,CCNc1nc(NC(C)C)nc(SCCOC(=O)c2ccccc2)n1,"inconclusive [inhibitor, partial curve]"
21,CC1=C(C(=O)Nc2ccc(C(=O)NCCC(C)C)cc2)SCCO1,"inconclusive [inhibitor, partial curve]"

# From PubChem BioAssay AID485294 (National Center for Advancing Translational Sciences (NCATS), 2010)
